The whole screen tested about 350,000 compounds, of which about 2,100 (0.6%) were called active. The shares of active, inactive and inconclusive entries below differ from those in the screen.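 The calls were made as follows: active = activity change of -60% or lower, but not beyond a set lower limit; inconclusive = change between -60% and -40%, or beyond the set limit; inactive = change above -40%.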
These compounds were tested against Relaxin receptor 1 (Homo sapiens) (UniProt Q9HBX9) (assay: qHTS Assay for Antagonists of the Relaxin Receptor RXFP1). Settings: HEK293-RXFP1, relaxin-stimulated cAMP HTRF, 30 min; at 57.5 µM; active compounds read low.
Sequence of UniProt Q9HBX9 (Q9HBX9 whole entry, looked up): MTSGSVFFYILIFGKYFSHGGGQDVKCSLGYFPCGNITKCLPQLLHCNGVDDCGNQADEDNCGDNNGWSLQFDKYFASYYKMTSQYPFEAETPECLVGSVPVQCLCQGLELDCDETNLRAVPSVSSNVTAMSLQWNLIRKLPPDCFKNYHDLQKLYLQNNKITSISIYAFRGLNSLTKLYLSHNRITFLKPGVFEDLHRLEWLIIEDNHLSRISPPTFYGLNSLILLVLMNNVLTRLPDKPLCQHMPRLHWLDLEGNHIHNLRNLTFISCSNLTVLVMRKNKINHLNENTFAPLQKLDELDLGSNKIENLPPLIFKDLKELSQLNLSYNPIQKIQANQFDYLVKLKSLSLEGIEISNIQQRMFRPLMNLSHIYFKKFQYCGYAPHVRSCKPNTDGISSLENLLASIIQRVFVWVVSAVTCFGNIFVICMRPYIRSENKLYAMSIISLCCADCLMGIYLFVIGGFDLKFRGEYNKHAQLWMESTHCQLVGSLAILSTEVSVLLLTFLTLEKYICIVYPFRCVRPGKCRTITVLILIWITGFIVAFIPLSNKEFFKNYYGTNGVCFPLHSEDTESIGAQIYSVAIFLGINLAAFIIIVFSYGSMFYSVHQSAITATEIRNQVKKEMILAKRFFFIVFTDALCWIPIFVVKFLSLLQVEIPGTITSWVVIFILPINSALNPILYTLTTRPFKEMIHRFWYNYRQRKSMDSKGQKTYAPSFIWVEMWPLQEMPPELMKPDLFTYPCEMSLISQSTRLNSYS
With `COc1cc2c(cc1/C=C/[N+](=O)[O-])OCO2` the activity change, negative = inhibition was inconclusive: -52.8%. In the case of `COc1ccc(C(=O)O/N=C(/C(N)=O)P(=O)(OC(C)C)OC(C)C)cc1`, the activity change, negative = inhibition is reported as inconclusive: -49.2%. `COc1cc(C(=O)NN=Cc2ccc(N(CCCl)CCCl)cc2)cc(OC)c1OC` was tested, and the activity change, negative = inhibition was inactive: -0.648%. With `O=C(O)c1ccc2c(c1)C1C(Cl)C(Sc3ccccc3[N+](=O)[O-])CC1C(c1cccc([N+](=O)[O-])c1)N2` (centres undefined) the activity change, negative = inhibition was active: -88.7%. `C[C@]12CCC3C(CC[C@H]4C[C@H](OC(=O)c5cccnc5)CC[C@]34C)C1CCC2=O` (some centres undefined) was tested, and the activity change, negative = inhibition was inconclusive: -54.9%. `O=c1c(C2CC(c3ccc(-c4ccc(Br)cc4)cc3)Cc3ccccc32)c(O)sc2ccccc12` (centres undefined) was tested, and the activity change, negative = inhibition was active: -72.2%. With `CSc1ccc(CN2CCN(c3ccccc3C)CC2)cc1` the activity change, negative = inhibition was inconclusive: -45%. With `CCOc1cc(CNCCc2c[nH]c3ccccc23)cc(Cl)c1OC` the activity change, negative = inhibition was inconclusive: -43.3%. In the case of `O=C(CNC(=O)OCc1ccccc1)Nc1ccc(Br)cc1C(=O)c1ccccc1`, the activity change, negative = inhibition is reported as inactive: -10.6%. In the case of `N#Cc1nn(-c2c(Cl)cc(C(F)(F)F)cc2Cl)c(N)c1S(=O)C(F)(F)F` (centres undefined), the activity change, negative = inhibition is reported as inconclusive: -54.6%. In the case of `C=CCC1=C(C)C(OC(=O)C2C(C=C(C)C)C2(C)C)CC1=O` (centres undefined), the activity change, negative = inhibition is reported as active: -70.2%. For `Cc1cc(NC(=O)C(Cl)(Cl)Cl)no1`, the activity change, negative = inhibition was inactive: 2.77%. For `CNc1ccc2nc3ccccc3[n+](C)c2c1`, the activity change, negative = inhibition was active: -91.9%. With `CC(C)C(Br)C(=O)NC(N)=O` (centres undefined) the activity change, negative = inhibition was inactive: 5.22%. With `Cc1ccccc1CN1CCN(c2ccc(Cl)cc2)CC1` the activity change, negative = inhibition was inconclusive: -49.2%. With `O=C(COC(=O)c1ccc(O)cc1)Nc1ccc(Cl)cc1C(=O)c1ccccc1` the activity change, negative = inhibition was inconclusive: -49.2%. `NCCc1nc2ccccc2s1` was tested, and the activity change, negative = inhibition was inactive: -0.482%. `O=C(c1ccc2c(=O)n(Cc3ccc4c(c3)OCO4)c(=S)[nH]c2c1)N1CCC2(CC1)OCCO2` was tested, and the activity change, negative = inhibition was inconclusive: -55.2%. `CC(C)CN(CC(C)C)c1ccc(C=C2C(=O)NC(=S)NC2=O)cc1[N+](=O)[O-]` was tested, and the activity change, negative = inhibition was active: -63.2%. For `CNc1cc(Cl)c2nonc2c1[N+](=O)[O-]`, the activity change, negative = inhibition was active: -81.4%. In the case of `ClCCCN1CCN(c2cccc(Cl)c2)CC1`, the activity change, negative = inhibition is reported as inactive: 13.6%. For `CCOC(=O)C1(c2ccccc2)CCN(CCC(C#N)(c2ccccc2)c2ccccc2)CC1`, the activity change, negative = inhibition was inactive: -25.4%. For `Cc1cc(/C=C2/C(=O)NC(=O)N(Cc3ccco3)C2=O)c(C)n1-c1ccccc1O`, the activity change, negative = inhibition was inconclusive: -45.2%. `Clc1ccccc1C1=NCc2nncn2-c2sc(Br)cc21` was tested, and the activity change, negative = inhibition was inconclusive: -54.6%. For `Cc1ccc(N=C(/N=C(\N)N[N+](=O)[O-])Nc2ccc(C)cc2)cc1`, the activity change, negative = inhibition was inconclusive: -42.6%. With `CN(C)CC(C(=O)Cc1ccccc1)c1ccccc1` (centres undefined) the activity change, negative = inhibition was active: -118%. In the case of `CCOC(=O)c1c(C=O)c2ccccc2n1Cc1ccccc1F`, the activity change, negative = inhibition is reported as inconclusive: -46.1%. With `COc1ccc(CN2CCCCC2c2cccnc2)cc1C` (centres undefined) the activity change, negative = inhibition was inconclusive: -41.6%. In the case of `CC(C)=C[C@@H]1[C@@H](C(=O)OCc2coc(Cc3ccccc3)c2)C1(C)C`, the activity change, negative = inhibition is reported as inconclusive: -42.6%. For `O=[N+]([O-])c1cc([N+](=O)[O-])c2ccccc2c1`, the activity change, negative = inhibition was inactive: 13.6%. `CCCCC/C(=N/O)c1c(C)[nH]c2ccccc12` was tested, and the activity change, negative = inhibition was inconclusive: -42.5%. With `Cc1ccc(/C=C2\C(=O)NC(=O)N(CCc3ccc(F)cc3)C2=O)s1` the activity change, negative = inhibition was inconclusive: -50.5%. For `C=CCc1cc(C=C2C(=O)N(C)C(=O)N(C)C2=O)cc(OCC)c1OCc1ccccc1`, the activity change, negative = inhibition was active: -77%. With `CCN(CC)c1ccc(C=C2C(=O)NC(=S)NC2=O)cc1` the activity change, negative = inhibition was inconclusive: -46.4%.

Reference: PubChem BioAssay AID1259400 (National Center for Advancing Translational Sciences (NCATS), 2018)
% is scaled to controls: 0 for no effect and ±100 for the full control effect.
